Data published in PubChem BioAssay AID1508623 (National Center for Advancing Translational Sciences (NCATS), 2021).
About 450 (0.94%) of roughly 48,000 compounds were called active. Roughly 19% stayed inconclusive and do not appear here. Calls come from the whole dose curve; as a rule, active = well fitted inhibition curve with a large enough effect; inconclusive = small, poorly fitted or top-dose-only effect; inactive = no such curve, though single readings can be large or run the other way. The list shows a part of the results.

Assay: Primary qHTS for Identification of Small Molecule Inhibitors of Huntingtin Promoter Activity; note: nearly all actives have a fitted effect of over 50% in size
Settings: HEK293 HTT promoter firefly luciferase reporter (activity 0% = vehicle and -100% = no light), 24 h; series mostly up to 57.5 µM; activity change, negative = inhibition: at the top concentration
Outline: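 Firefly luciferase signal from promoter-reporter HEK293 cells was scaled between vehicle (0%) and zero RLU (-100%). Compounds were tested at final concentrations of up to 57.5 uM over 24 h at 37 degrees C. PTC124 at 50 uM final served as control inhibitor.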

Activity change, negative = inhibition, inactive:
CN(C)CCCNC(=O)C(=O)NCC(c1ccc2c(c1)OCO2)N1CCOCC1 (configuration not stated) 1.31%
Cc1nc2nc(SCC(=O)Nc3ccccc3Cl)nn2c(C)c1Cc1ccccc1 -14.5%
O=C(c1ccc(Br)cc1)N(Cc1cccs1)c1ccc(F)cc1 -26.6%
CN1CCN(C(=O)Cn2ncc3c4ccccc4n(Cc4ccc(F)cc4)c3c2=O)CC1 -8.01%
COc1cccc(C(=O)Nc2ccccc2OCc2cc(=O)n3ccccc3n2)c1 -1.13%
Cc1cccn2c(=O)c(/C=C(\C#N)c3nc4ccccc4s3)c(Oc3ccc(F)cc3)nc12 -6.15% [at 11.5 µM]
Cc1cc(N(CCO)Cc2ccccc2)n2nc(-c3ccc(C(C)(C)C)cc3)nc2n1 1.58%
COc1ccccc1CN1CCNC(=O)C1=O -3.68%
COc1ccc(N(Cc2nnc3n2CCCCC3)C(=O)Nc2cccc(C)c2)cc1Cl -3.76%
O=C(Cn1ncc2c3ccccc3n(Cc3ccccc3)c2c1=O)NC1CCCCCC1 0.818%
COc1ccccc1NC(=O)Cn1c(=O)n(-c2cccc(C)c2)c(=O)c2c1c1cc(C)ccc1n2C -18.5%
COc1ccc(NC(=O)C(CC(C)C)NC(=O)C2CCCCC2)cc1 (configuration not stated) -12.6%
COc1ccc(-c2cn3c(n2)sc2cc(C(=O)NCc4cccc(F)c4)ccc23)cc1 -9.87%
Cc1ccc(NC(=O)Cn2c(=O)n(Cc3ccc4c(c3)OCO4)c(=O)c3ccccc32)cc1 -16.7%
Cc1ccccc1-c1cc2nccc(-c3cc(Cl)ccc3O)n2n1 0.788%
CCCc1noc(-c2ccc(NCc3ccc(C)cc3)c([N+](=O)[O-])c2)n1 -10.6%
Cc1ccc(NC(=O)CN2C(=O)COc3ccc(S(=O)(=O)NC4CCCC4)cc32)c(Cl)c1 -19.2%
Cc1nc(C)c(CCNS(=O)(=O)c2ccc(F)cc2)s1 -31.1%
COc1ccc(CNC(=O)c2cnc3sc(N4CCCC4)nn3c2=O)c(OC)c1 7.39%
CCc1ccc(Nc2nnc(-n3nc(C)cc3C)c3ccccc23)cc1 16.6%
CCCCNC(=O)CSc1nc2cc3c(cc2c(=O)n1CCCCCC(=O)NCc1ccc(OC)cc1)OCO3 -9.94%
Cc1ccccc1C(=O)NCCc1sc(-c2ccc(Cl)cc2)nc1C -10.4%
COc1ccc(C2CC(=O)N(CC(=O)Nc3ccc(C)c(Cl)c3)c3ccccc3S2)cc1OC (configuration not stated) -29.2%
COc1ccc(N(Cc2cccs2)C(=O)Nc2cccc(Cl)c2)cc1 -15.1%
CCOC(=O)C1CCCN(S(=O)(=O)c2ccc3c(c2)oc(=O)n3C)C1 (configuration not stated) -24.1%
Cc1ccccc1NC(=O)CCN1C(=O)c2ccccc2Sc2ncccc21 -1.93%
COc1cccc(NC(=O)CCc2c(C)nc3ncnn3c2C)c1 -6.14%
Cc1cn2c(=O)cc(COc3ccc(NC(=O)COc4ccccc4)cc3)nc2s1 -3.4%
Cc1ccc(-n2c(=O)c3ccc(C(=O)NCc4ccccc4Cl)cc3n(CC(=O)Nc3ccc(C)cc3C)c2=O)cc1 -14%
Cc1cc(C)cc(C(=O)n2nc(C)c(S(=O)(=O)N3CCOCC3)c2C)c1 -0.252%
CCOC(=O)c1c(NC(=O)c2ccc(F)cc2)sc2c1CCC(CC)C2 (configuration not stated) -15.5% [at 11.5 µM]
CCOC(=O)c1cccc(NC(=O)[C@H](CSCc2ccccc2)N2Cc3ccccc3C2=O)c1 -27%
Cc1ccc(Nc2cc(C)nc3nncn23)c(C)c1 -20.5%
CN1C(=O)C2(c3ccccc31)N(c1ccc(Br)cc1)C(=O)CS2(=O)=O (configuration not stated) -17.6%
O=c1[nH]c(C2CCCN(S(=O)(=O)c3ccccc3)C2)nc2c1nnn2Cc1ccc(OC(F)(F)F)cc1 (configuration not stated) -10.4%
O=C(C1CCC(Cn2c(=O)c3sccc3n(Cc3ccc(F)cc3)c2=O)CC1)N1CCOCC1 (configuration not stated) -21.2%
CN1C(=O)c2[nH]nc(-c3ccc(F)cc3)c2C1c1cccc(O)c1 (configuration not stated) 2.21%
Cc1cc(C)cc(Nc2nc3cc(Cl)c(Cl)cc3nc2-n2nc(C)cc2C)c1 -12.8%
Cn1cc(-c2cc3n(n2)CCC(=O)N3CCCC(=O)NCc2ccccc2Cl)c2ccccc21 -10.2%
CC(C)CCn1c(SCc2cccc(F)c2)nc2ccsc2c1=O -11.2%
CCc1ccc2oc(C(=O)NCc3ccccc3)cc(=O)c2c1 36.1% [at 11.5 µM]
CCCCOc1ccc(C2C(=O)N(C3CCCCC3)CC(=O)N2CCCC)cc1 (configuration not stated) -8.9%
Cc1ccc(NC(=O)Cn2c(-c3nonc3N)nc3ccccc32)c(Br)c1 -25.9%
COc1cccc(CNC(=O)CCc2c(C)c3ccc(O)c(C)c3oc2=O)c1 -6.46%
CCOC(=O)c1noc2ncn(CC(=O)Nc3ccccc3OC)c(=O)c12 -1.65%
Cc1ccc(-n2ncc(C(=O)NCCCN3CCc4ccccc4C3)c2C2CCN(C(=O)OC(C)(C)C)CC2)c(C)c1 -13.7%
CCCCN(CC)CCCNC(=O)c1ccc2c(c1)NC(=O)CN2C -10.7%
COc1ccc(-n2c(SCc3ccccc3)nc3c([nH]c4ccccc43)c2=O)cc1 -1.76%
COc1cccc(CNC(=O)Cn2nc(N3CCN(c4ccccc4OC)CC3)ccc2=O)c1 0.0798%
COc1ccc(C)cc1NC(=O)CN1C(=O)COc2ccc(S(=O)(=O)N3CCC(C)CC3)cc21 -11.2%
Cc1c(Cl)cccc1NC(=O)C(C)n1c(=O)cc(C)c2c(C)nn(-c3ccccc3)c21 (configuration not stated) 0.844%
CCOc1ccc(-n2c(=O)c3c(C)c(C)sc3n(Cc3ccccc3C)c2=O)cc1 -6.19%
CCNC(=O)CCSc1nnc(-c2ccc(O)cc2)o1 18.5%
CCC(Oc1ccc(F)cc1)C(=O)Nc1cc(-c2ccc(C)cc2)no1 (configuration not stated) -8.75%
CCN(CC)c1ccc(NC(=O)c2cc(CN3CCCC3)on2)c(C)c1 -12.6%
Cn1c(=O)c2ccccc2n2c(CCC(=O)N3CCN(c4cccc(Cl)c4)CC3)nnc12 -0.569%
COc1ccc(Cl)cc1NC(=O)C(C)n1nnc2sc3c(c2c1=O)CCCC3 (configuration not stated) -2.6%
Cc1cc(C)cc(N2C(=O)CC(c3ccc(C(F)(F)F)cc3)C3=C2COC3=O)c1 (configuration not stated) -5.62%
COc1ccccc1C(=O)Nc1cc(-c2cccc(Br)c2)nn1-c1ccccc1 -19.9%
CCN1CCN(c2csc3ccc(Cl)cc3c2=O)CC1 21.2%
Cc1cccc(NC(=O)CSc2nc(-c3cccs3)cc(C(F)(F)F)c2C#N)c1 -26%
CCCCn1c(Oc2cccc(C(=O)OC)c2)nc2c1c(=O)n(C)c(=O)n2C -0.449%
